# Source: PMC4336329 (PLoS ONE, 2015)
# Out of some 310,000 compounds screened, about 2,200 (0.71%) showed an effect of 50% or more. Effects have a minus sign here. Some of the results follow.
# Molecular target: human ether-à-go-go-related gene (hERG) potassium channel (human, UniProt Q12809)
# Assay: primary screen, population patch clamp on CHO cells stably expressing hERG
# Chain of human ether-à-go-go-related gene (hERG) potassium channel (Q12809 whole entry, looked up): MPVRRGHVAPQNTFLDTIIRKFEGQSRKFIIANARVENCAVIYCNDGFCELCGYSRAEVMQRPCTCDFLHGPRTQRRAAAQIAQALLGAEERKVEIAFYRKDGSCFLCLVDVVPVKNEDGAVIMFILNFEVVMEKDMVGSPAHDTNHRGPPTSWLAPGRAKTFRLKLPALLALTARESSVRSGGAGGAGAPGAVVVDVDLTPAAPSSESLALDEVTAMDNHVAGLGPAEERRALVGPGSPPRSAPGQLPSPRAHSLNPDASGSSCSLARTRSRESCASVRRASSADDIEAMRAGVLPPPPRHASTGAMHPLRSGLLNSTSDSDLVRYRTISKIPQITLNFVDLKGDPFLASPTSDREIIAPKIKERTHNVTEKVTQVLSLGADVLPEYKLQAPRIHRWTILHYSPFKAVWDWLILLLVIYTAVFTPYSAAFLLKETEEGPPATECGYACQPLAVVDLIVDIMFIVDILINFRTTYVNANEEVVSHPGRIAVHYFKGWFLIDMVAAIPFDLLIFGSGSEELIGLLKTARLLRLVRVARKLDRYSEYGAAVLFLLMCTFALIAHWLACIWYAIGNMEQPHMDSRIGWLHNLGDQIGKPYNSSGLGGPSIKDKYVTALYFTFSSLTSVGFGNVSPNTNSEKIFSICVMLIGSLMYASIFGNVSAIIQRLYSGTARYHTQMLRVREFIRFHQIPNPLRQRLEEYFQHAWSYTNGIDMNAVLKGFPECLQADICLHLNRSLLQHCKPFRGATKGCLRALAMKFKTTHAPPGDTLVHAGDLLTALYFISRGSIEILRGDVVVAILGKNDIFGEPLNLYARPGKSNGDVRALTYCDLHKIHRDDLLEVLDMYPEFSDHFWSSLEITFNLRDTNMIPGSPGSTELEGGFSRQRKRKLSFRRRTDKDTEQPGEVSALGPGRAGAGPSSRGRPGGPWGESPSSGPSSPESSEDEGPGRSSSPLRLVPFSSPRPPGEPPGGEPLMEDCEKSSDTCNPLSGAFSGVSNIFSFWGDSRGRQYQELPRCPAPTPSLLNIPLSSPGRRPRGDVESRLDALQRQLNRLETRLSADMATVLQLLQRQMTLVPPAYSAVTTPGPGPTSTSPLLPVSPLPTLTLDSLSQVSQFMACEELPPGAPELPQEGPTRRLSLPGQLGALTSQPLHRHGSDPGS
row,Structure (SMILES),"hERG current change (%, negative = inhibition) at 1uM [%]"
1,Cc1cc(=O)[nH]c(SCC2(O)C3CC4CC(C3)CC2C4)n1 (stereo not shown),14.7
2,CCOc1ccc(-n2c(=O)c3sccc3n(CC(=O)NCC3CCCO3)c2=O)cc1 (stereo not shown),11.9
3,CCOc1ccc(-c2cc(CCCC(=O)NCCc3ccccc3)no2)cc1,6.07
4,NC(=O)[C@H]1CC2(CC(c3cccc(NC(=O)[C@H]4CCC(=O)N4)c3)=NO2)CN1C(=O)CC(c1ccccc1)c1ccccc1 (stereo partly shown),5.55
5,CCCCn1c(N)c(N(CC(C)C)C(=O)c2cccc(S(=O)(=O)N3CCN(C)CC3)c2)c(=O)[nH]c1=O,-7.64
6,Cc1cnc(C(=O)Nc2nccs2)cn1,-3.21
7,CC(C)CN(CC(C)C)S(=O)(=O)N1CCC(C(=O)NCCc2ccc(Cl)cc2)CC1,13.3
8,CN1CCN(C(=S)NC(=O)/C=C/c2cccc3ccccc23)CC1,3.7
9,NC(=S)Nc1cccc(-c2n[nH]c(=S)o2)c1,15.2
10,O=C(CCNS(=O)(=O)c1ccc(Br)cc1)NCc1cccs1,6.54
11,Cc1ccc(C)c(N(CC(=O)N(C)C)S(C)(=O)=O)c1,12.6
12,O=C(O)CC12CSc3[nH]c(=O)sc3C1c1ccccc1OC2=O (stereo not shown),17.6
13,COc1cccc(NC(=O)c2ccccc2C(F)(F)F)c1,-4.05
14,COc1ccc(OCC(=O)N2CCN(CC3CC4C=CC3C4)CC2)cc1 (stereo not shown),-16.5
15,CN(C)Cc1c(O)ccc2[nH]cnc12.Cl,-6.14
16,CC(C)N1CCc2c(sc(NC(=O)CCS(=O)(=O)c3ccccc3)c2C(N)=O)C1.Cl,-2.04
17,Cn1c(CC(=O)NNC(=O)c2cccnc2)nc2ccccc21,6.53
18,COc1ccc(-c2noc(CCCC(=O)NCCc3ccccc3)n2)cc1OC,15.2
19,COCC1CCN(C(=O)c2ccc3oc(CCCc4ccccc4)nc3c2)C1 (stereo not shown),-18.5
20,CC1CCN(CC(O)COc2cccc(F)c2)CC1 (stereo not shown),-0.91

row,Structure (SMILES),"hERG current change (%, negative = inhibition) at 1uM [%]"
1,COc1ccc(Cl)cc1NC(=O)Nc1ccc(C(=O)N2CCOCC2)cc1,8.97
2,COCCCN1C(=O)C(=O)/C(=C(/O)c2ccc(OCC(C)C)cc2)C1c1cccnc1 (stereo not shown),6.94
3,c1ccc(-c2cn3nc(-c4ccccc4)cnc3n2)cc1,22.9
4,CCn1c(COc2cccc3ccccc23)nnc1SCC(=O)OC1CCCCC1,6.76
5,COC(=O)c1ccc(C(=O)OC)c(NC(=S)N2CCN(c3ccccn3)CC2)c1,4.91
6,COc1ccc(C)cc1S(=O)(=O)NC1CC1,19
7,O=C(NNC(=O)C1C2CCCCC21)c1coc(=O)c(Br)c1 (stereo not shown),10.5
8,CC(Oc1ccccc1)C(=O)Nc1c2c(nn1-c1ccccc1)CS(=O)(=O)C2 (stereo not shown),17.6
9,O=C(Cc1cc(=O)oc2cc(O)ccc12)N[C@@H](Cc1c[nH]c2ccccc12)C(=O)O,13.2
10,CNC(=O)COC(=O)c1cc(=O)[nH]c2ccccc12,9.71
11,Cc1ccc(C(=O)O)cc1S(=O)(=O)N1CCSCC1,9.97
12,CCC(CC)C(=O)NCc1cccnc1,13.4
13,Cc1ccc(N=CC=C2OC(C)(C)C(C)(C)O2)cc1,3.41
14,CCn1c(SCC(N)=O)nc2c(c1=O)C1(CCCC1)Cc1ccccc1-2,6.12
15,O=C(NCc1ccccc1)c1ccc(C2SCC(=O)N2Cc2ccccc2)cc1 (stereo not shown),12.3
16,Cc1occc1C(=O)NNC(=O)C1CC1,13.3
17,CC(=O)Oc1cccc2c1C(=O)c1c(OC(C)=O)cc(C(=O)O)cc1C2=O,10.5
18,CC1(NC(=O)C2CCN(C(=O)Nc3ccccc3)CC2)CCS(=O)(=O)C1 (stereo not shown),-6.43
19,O=C(Nc1ccc(Cl)c(Cl)c1)Nc1nnc(CSc2ccccc2)s1,9.56
20,O=S(=O)(c1ccccc1)N(Cc1cccc(F)c1)c1ccccc1,19.4

row,Structure (SMILES),"hERG current change (%, negative = inhibition) at 1uM [%]"
1,O=P(O)(OCc1ccccc1)OCc1ccccc1,8.15
2,CCOC(=O)c1ccc(NC(=O)CN2CCc3ccccc3C2)cc1,-7.73
3,O=C(COC(=O)Cn1cnc2ccccc21)NCCCc1ccccc1,5.51
4,C=CCSc1nnc(NC(=O)CSc2nc(CCC)cc(=O)[nH]2)s1,1.07
5,COc1cccc(CN2CCC(Oc3ccc(C(=O)N4CCCCC4)cc3)CC2)c1O,9.08
6,C[C@@H](C(=O)OCC(=O)NCCc1ccc(S(N)(=O)=O)cc1)N1C(=O)C2CCCCC2C1=O (stereo partly shown),12
7,S=C(Nc1ccccc1Oc1ccccc1)NC1CCCC1,5.54
8,Nc1nonc1C(=O)N/N=C/c1ccc(-c2ccc(Cl)c(C(=O)O)c2)o1,15.2
9,Cc1occc1C(=O)NCc1ccc2c(c1)OCO2,17.3
10,CSc1nc(-c2ccc(Cl)cc2)nn1S(=O)(=O)c1ccccc1,4.02
11,CCOC(=O)Nc1ccc(OC)c([N+](=O)[O-])c1,10.9
12,COc1cccc(NS(=O)(=O)c2cc3c4c(c2)CCC(=O)N4CCC3)c1,7.63
13,FC(F)c1nc2ccccc2[nH]1,13.5
14,Cc1nc2sc3c(c2c(=O)n1N)CCC3,14.5
15,Cc1ccc(C(C)C)c(OCCNCCc2ccccc2)c1.O=C(O)C(=O)O,5.84
16,CCCCCC(=O)N=Nc1c(O)[nH]c2ccc([N+](=O)[O-])cc12,4.59
17,O=C(C1=C[C@@H](C2CCCCC2)C[C@@H](OCCCCO)O1)N1CCN(Cc2ccccc2)CC1,0.371
18,Cc1ccc(CN2C(=O)N/C(=C/c3ccc(-c4ccc(C(=O)O)cc4)o3)C2=O)cc1,11.5
